In article PMC2896402 one finds binding data, which are given here for four substances.

The chains behind the UniProt entries cited, without tags or fusion partners.
UniProt Q9UKB1: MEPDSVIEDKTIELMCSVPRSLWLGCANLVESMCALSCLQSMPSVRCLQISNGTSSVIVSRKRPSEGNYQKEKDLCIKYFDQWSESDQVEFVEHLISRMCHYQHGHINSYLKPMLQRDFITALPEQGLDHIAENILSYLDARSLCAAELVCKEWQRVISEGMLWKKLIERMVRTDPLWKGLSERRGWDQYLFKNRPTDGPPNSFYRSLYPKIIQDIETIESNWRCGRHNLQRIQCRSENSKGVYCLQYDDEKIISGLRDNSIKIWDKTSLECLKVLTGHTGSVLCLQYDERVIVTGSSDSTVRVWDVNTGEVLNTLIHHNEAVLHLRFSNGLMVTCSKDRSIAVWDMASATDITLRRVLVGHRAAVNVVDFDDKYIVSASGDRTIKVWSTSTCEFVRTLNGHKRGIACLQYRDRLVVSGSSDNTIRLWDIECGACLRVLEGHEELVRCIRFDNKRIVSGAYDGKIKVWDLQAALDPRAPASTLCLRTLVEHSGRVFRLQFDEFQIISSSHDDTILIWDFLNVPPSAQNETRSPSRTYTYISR
UniProt Q9Y297: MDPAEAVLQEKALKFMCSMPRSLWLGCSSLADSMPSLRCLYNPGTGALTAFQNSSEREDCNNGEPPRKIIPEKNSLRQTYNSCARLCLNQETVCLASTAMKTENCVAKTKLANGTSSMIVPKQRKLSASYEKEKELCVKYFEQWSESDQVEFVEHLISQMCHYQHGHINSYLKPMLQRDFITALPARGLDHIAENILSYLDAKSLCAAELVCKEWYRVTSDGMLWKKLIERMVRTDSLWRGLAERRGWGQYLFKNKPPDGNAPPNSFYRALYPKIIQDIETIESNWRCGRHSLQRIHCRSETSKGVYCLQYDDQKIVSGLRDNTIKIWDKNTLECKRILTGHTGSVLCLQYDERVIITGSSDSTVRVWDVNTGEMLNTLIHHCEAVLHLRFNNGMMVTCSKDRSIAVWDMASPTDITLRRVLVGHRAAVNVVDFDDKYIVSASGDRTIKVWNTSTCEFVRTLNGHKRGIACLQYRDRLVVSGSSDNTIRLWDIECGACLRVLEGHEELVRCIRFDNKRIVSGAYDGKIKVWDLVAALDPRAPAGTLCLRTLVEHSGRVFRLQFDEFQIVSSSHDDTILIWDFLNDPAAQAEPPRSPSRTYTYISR

One assay has as its target GST-FO(1–300) (UniProt O43524). Description: pull-down; GST-FO fusion proteins on glutathione-Sepharose beads; 1 mg total lysate of 293T cells transfected with IKKβ or treated with TNFα (10 ng/ml); binding buffer 50 mM Tris pH 7.5, 100 mM NaCl, 10 mM MgCl2, 0.5% Nonidet P-40; overnight at room temperature or 4°C; IB with anti-βTrCP1 or anti-βTrCP2; only the target purified.

The target of another assay is T1, GST-FO(301–673) (UniProt O43524).
T1 sequence: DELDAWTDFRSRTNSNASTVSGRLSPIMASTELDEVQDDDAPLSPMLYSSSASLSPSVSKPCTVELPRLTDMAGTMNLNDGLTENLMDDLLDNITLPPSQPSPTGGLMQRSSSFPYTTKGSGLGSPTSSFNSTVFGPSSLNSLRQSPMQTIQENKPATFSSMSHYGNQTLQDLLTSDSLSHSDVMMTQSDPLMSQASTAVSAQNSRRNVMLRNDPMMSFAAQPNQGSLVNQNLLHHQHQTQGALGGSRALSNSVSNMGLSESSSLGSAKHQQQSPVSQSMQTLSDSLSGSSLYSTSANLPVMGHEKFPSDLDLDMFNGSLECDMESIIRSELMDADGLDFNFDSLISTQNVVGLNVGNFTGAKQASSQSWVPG
Described as above.

Assay [1] deals with FOXO3 (endogenous, MCF-7) (human (endogenous in MCF-7)) (UniProt O43524). Description: co-IP; endogenous proteins in total lysates of MCF-7 cells; IP with anti-FOXO3 and IB with anti-βTrCP1, and reciprocal; lysates sonicated and precleared with nonspecific IgG, antibody at 4°C overnight; rabbit IgG or isotype mouse IgG as IP negative control.
For a further assay, the target named is HA-FOXO3 (UniProt O43524). Briefly: co-IP; total lysates of 293T cells cotransfected with HA-tagged FOXO3 plus myc-tagged βTrCP1 or βTrCP1ΔF, and IKKβ or an empty vector; IP anti-myc and IB anti-HA, and reciprocal IP anti-HA and IB anti-myc.
The next assay deals with T2, GST-FO(626–673) (UniProt O43524).
T2 sequence: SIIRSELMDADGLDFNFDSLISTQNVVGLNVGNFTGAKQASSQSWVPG
Briefly: pull-down; GST-FO fusion proteins on glutathione-Sepharose beads; 1 mg total lysate of 293T cells transfected with IKKβ or treated with TNFα (10 ng/ml); binding buffer 50 mM Tris pH 7.5, 100 mM NaCl, 10 mM MgCl2, 0.5% Nonidet P-40; overnight at room temperature or 4°C; IB with anti-βTrCP1 or anti-βTrCP2; only the target purified.

The target in another assay is T3, GST-FO(301–346) (UniProt O43524).
T3 sequence: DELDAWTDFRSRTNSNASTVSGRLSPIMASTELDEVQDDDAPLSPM
The assay is described as above.

The next assay addresses T4, GST-FO(579–625) (UniProt O43524).
T4 sequence: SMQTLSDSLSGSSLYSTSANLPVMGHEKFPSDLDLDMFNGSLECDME
The description is as above.

A further assay concerns the target T5, GST-FO (301–673)AAA (UniProt O43524).
T5 sequence: T1 sequence with S286A, S290A, S344A
The description is as above.

Residue numbers refer to the chain shown, from its start. Results are given in words; binding and its absence hold for the method and conditions named. Binding seen in cells or lysates may run through a third protein. Some results given as binding are weak or reduced against the parent protein; the word gives no strength. For part of these data: Where a sequence is shown, tags or fusion partners need not be part of it.

Turning to “βTrCP2 (endogenous, 293T lysate) (from UniProt Q9UKB1 1-542)”, the binding entry in the assay with GST-FO(1–300) and with GST-FO(301–673) was “no binding” in each case.
For the substance “βTrCP1 (endogenous, MCF-7) (from UniProt Q9Y297 1-605)”, the binding entry in assay [1] is on record as “binds”.
Consider myc-βTrCP1 (from UniProt Q9Y297 1-605), for which, in the assay with HA-FOXO3, the binding result is recorded as “binds”.
Take “βTrCP1 (endogenous, 293T lysate) (from UniProt Q9Y297 1-605)”: the binding entry with GST-FO(626–673) is “binds”; with GST-FO(301–346), “binds”; in the assay with GST-FO(579–625) it was “binds”; with GST-FO(301–673), “binds”; with GST-FO (301–673)AAA it was “no binding”.
